# The other results are listed elsewhere or left out.
# Key:
# Assay in all cases: glycan array binding signal (z-score within array); higher = stronger binding
# Conditions in all cases: glycan notation: IUPAC condensed, linker removed
# [1] = molecular target: GlcNAc(b1-2)Gal(b1-3)GalNAc
# How it was run: (§1)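 Columns mapping to the same glycan were averaged after glycan names were converted to IUPAC-condensed notation. The data come from 3228 arrays in the Consortium for Functional Glycomics database, limited to those with an available protein sequence. Binding is reported as a within-array Z-score averaged across arrays of one protein sequence and across linkers.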
# [2] = molecular target: GlcNAc(b1-2)Man(a1-3)[GlcNAc(b1-2)Man(a1-6)]Man(b1-4)GlcNAc(b1-4)GlcNAc
# How it was run: as §1
# [3] = molecular target: GlcNAc(b1-2)Man(a1-3)[GlcNAc(b1-2)Man(a1-6)]Man(b1-4)GlcNAc(b1-4)[Fuc(a1-6)]GlcNAc
# How it was run: as §1
# [4] = molecular target: GlcNAc(b1-2)Man(a1-3)[GlcNAc(b1-4)][GlcNAc(b1-2)Man(a1-6)]Man(b1-4)GlcNAc(b1-4)GlcNAc
# How it was run: as §1
# [5] = molecular target: GlcNAc(b1-2)Man(a1-3)[GlcNAc(b1-4)][GlcNAc(b1-2)Man(a1-6)]Man(b1-4)GlcNAc(b1-4)[Fuc(a1-6)]GlcNAc
# How it was run: as §1
# [6] = molecular target: GlcNAc(b1-2)[GlcNAc(b1-4)]Man(a1-3)[GlcNAc(b1-2)Man(a1-6)]Man(b1-4)GlcNAc(b1-4)GlcNAc
# How it was run: as §1
# [7] = molecular target: GlcNAc(b1-2)[GlcNAc(b1-4)]Man(a1-3)[GlcNAc(b1-4)][GlcNAc(b1-2)Man(a1-6)]Man(b1-4)GlcNAc(b1-4)GlcNAc
# How it was run: as §1
# [8] = molecular target: GlcNAc(b1-2)[GlcNAc(b1-4)]Man(a1-3)[GlcNAc(b1-4)][GlcNAc(b1-2)[GlcNAc(b1-6)]Man(a1-6)]Man(b1-4)GlcNAc(b1-4)GlcNAc
# How it was run: as §1
# [9] = molecular target: GlcNAc(b1-2)[GlcNAc(b1-4)]Man(a1-3)[GlcNAc(b1-4)][GlcNAc(b1-2)[GlcNAc(b1-6)]Man(a1-6)]Man(b1-4)GlcNAc(b1-4)[Fuc(a1-6)]GlcNAc
# How it was run: as §1
# [10] = molecular target: GlcNAc(b1-2)[GlcNAc(b1-6)]Man(a1-6)[GlcNAc(b1-2)Man(a1-3)]Man(b1-4)GlcNAc(b1-4)GlcNAc
# How it was run: as §1
# [11] = molecular target: GlcNAc(b1-2)[GlcNAc(b1-6)]Man(a1-6)[GlcNAc(b1-2)Man(a1-3)]Man(b1-4)GlcNAc(b1-4)[Fuc(a1-6)]GlcNAc
# How it was run: as §1
# [12] = molecular target: GlcNAc(b1-2)[GlcNAc(b1-6)]Man(a1-6)[GlcNAc(b1-4)][GlcNAc(b1-2)Man(a1-3)]Man(b1-4)GlcNAc(b1-4)GlcNAc
# How it was run: as §1
# [13] = molecular target: GlcNAc(b1-3)Fuc
# How it was run: as §1
# [14] = molecular target: GlcNAc(b1-3)Gal
# How it was run: as §1
# [15] = molecular target: GlcNAc(b1-3)Gal(b1-3)GalNAc
# How it was run: as §1
# [16] = molecular target: GlcNAc(b1-3)Gal(b1-4)Glc
# How it was run: as §1
# [17] = molecular target: GlcNAc(b1-3)Gal(b1-4)GlcNAc
# How it was run: as §1
# [18] = molecular target: GlcNAc(b1-3)Gal(b1-4)GlcNAc(b1-2)Man(a1-3)[GlcNAc(b1-3)Gal(b1-4)GlcNAc(b1-2)Man(a1-6)]Man(b1-4)GlcNAc(b1-4)GlcNAc
# How it was run: as §1
# [19] = molecular target: GlcNAc(b1-3)Gal(b1-4)GlcNAc(b1-2)Man(a1-3)[GlcNAc(b1-3)Gal(b1-4)GlcNAc(b1-2)Man(a1-6)]Man(b1-4)GlcNAc(b1-4)[Fuc(a1-6)]GlcNAc
# How it was run: as §1
# [20] = molecular target: GlcNAc(b1-3)Gal(b1-4)GlcNAc(b1-2)[GlcNAc(b1-3)Gal(b1-4)GlcNAc(b1-6)]Man(a1-6)[GlcNAc(b1-3)Gal(b1-4)GlcNAc(b1-2)Man(a1-3)]Man(b1-4)GlcNAc(b1-4)GlcNAc
# How it was run: as §1
# [21] = molecular target: GlcNAc(b1-3)Gal(b1-4)GlcNAc(b1-3)Gal(b1-4)GlcNAc
# How it was run: as §1
# [22] = molecular target: GlcNAc(b1-3)Gal(b1-4)GlcNAc(b1-3)Gal(b1-4)GlcNAc(b1-2)Man(a1-3)[GlcNAc(b1-3)Gal(b1-4)GlcNAc(b1-3)Gal(b1-4)GlcNAc(b1-2)Man(a1-6)]Man(b1-4)GlcNAc(b1-4)GlcNAc
# How it was run: as §1
# [23] = molecular target: GlcNAc(b1-3)Gal(b1-4)GlcNAc(b1-3)Gal(b1-4)GlcNAc(b1-2)Man(a1-3)[GlcNAc(b1-3)Gal(b1-4)GlcNAc(b1-3)Gal(b1-4)GlcNAc(b1-2)Man(a1-6)]Man(b1-4)GlcNAc(b1-4)[Fuc(a1-6)]GlcNAc
# How it was run: as §1
# [24] = molecular target: GlcNAc(b1-3)Gal(b1-4)GlcNAc(b1-3)Gal(b1-4)GlcNAc(b1-2)[GlcNAc(b1-3)Gal(b1-4)GlcNAc(b1-3)Gal(b1-4)GlcNAc(b1-6)]Man(a1-6)[GlcNAc(b1-3)Gal(b1-4)GlcNAc(b1-3)Gal(b1-4)GlcNAc(b1-2)Man(a1-3)]Man(b1-4)GlcNAc(b1-4)[Fuc(a1-6)]GlcNAc
# How it was run: as §1
# [25] = molecular target: GlcNAc(b1-3)Gal(b1-4)GlcNAc(b1-3)Gal(b1-4)GlcNAc(b1-3)Gal(b1-4)GlcNAc(b1-2)Man(a1-3)[GlcNAc(b1-3)Gal(b1-4)GlcNAc(b1-3)Gal(b1-4)GlcNAc(b1-3)Gal(b1-4)GlcNAc(b1-2)Man(a1-6)]Man(b1-4)GlcNAc(b1-4)GlcNAc
# How it was run: as §1
# [26] = molecular target: GlcNAc(b1-3)Gal(b1-4)GlcNAc(b1-3)Gal(b1-4)GlcNAc(b1-3)Gal(b1-4)GlcNAc(b1-2)Man(a1-3)[GlcNAc(b1-3)Gal(b1-4)GlcNAc(b1-3)Gal(b1-4)GlcNAc(b1-3)Gal(b1-4)GlcNAc(b1-2)Man(a1-6)]Man(b1-4)GlcNAc(b1-4)[Fuc(a1-6)]GlcNAc
# How it was run: as §1
# [27] = molecular target: GlcNAc(b1-3)Gal(b1-4)GlcNAc(b1-3)Gal(b1-4)GlcNAc(b1-3)Gal(b1-4)GlcNAc(b1-2)[GlcNAc(b1-3)Gal(b1-4)GlcNAc(b1-3)Gal(b1-4)GlcNAc(b1-3)Gal(b1-4)GlcNAc(b1-6)]Man(a1-6)[GlcNAc(b1-3)Gal(b1-4)GlcNAc(b1-3)Gal(b1-4)GlcNAc(b1-3)Gal(b1-4)GlcNAc(b1-2)Man(a1-3)]Man(b1-4)GlcNAc(b1-4)[Fuc(a1-6)]GlcNAc
# How it was run: as §1
# [28] = molecular target: GlcNAc(b1-3)Gal(b1-4)GlcNAc(b1-3)Gal(b1-4)GlcNAc(b1-3)Gal(b1-4)GlcNAc(b1-3)Gal(b1-4)GlcNAc(b1-2)Man(a1-3)[GlcNAc(b1-3)Gal(b1-4)GlcNAc(b1-3)Gal(b1-4)GlcNAc(b1-3)Gal(b1-4)GlcNAc(b1-3)Gal(b1-4)GlcNAc(b1-2)Man(a1-6)]Man(b1-4)GlcNAc(b1-4)GlcNAc
# How it was run: as §1
# [29] = molecular target: GlcNAc(b1-3)Gal(b1-4)GlcNAc(b1-3)Gal(b1-4)GlcNAc(b1-3)Gal(b1-4)GlcNAc(b1-3)Gal(b1-4)GlcNAc(b1-2)Man(a1-3)[GlcNAc(b1-3)Gal(b1-4)GlcNAc(b1-3)Gal(b1-4)GlcNAc(b1-3)Gal(b1-4)GlcNAc(b1-3)Gal(b1-4)GlcNAc(b1-2)Man(a1-6)]Man(b1-4)GlcNAc(b1-4)[Fuc(a1-6)]GlcNAc
# How it was run: as §1
# [30] = molecular target: GlcNAc(b1-3)Gal(b1-4)GlcNAc(b1-3)Gal(b1-4)GlcNAc(b1-3)Gal(b1-4)GlcNAc(b1-3)Gal(b1-4)GlcNAc(b1-2)[GlcNAc(b1-3)Gal(b1-4)GlcNAc(b1-3)Gal(b1-4)GlcNAc(b1-3)Gal(b1-4)GlcNAc(b1-3)Gal(b1-4)GlcNAc(b1-6)]Man(a1-6)[GlcNAc(b1-3)Gal(b1-4)GlcNAc(b1-3)Gal(b1-4)GlcNAc(b1-3)Gal(b1-4)GlcNAc(b1-3)Gal(b1-4)GlcNAc(b1-2)Man(a1-3)]Man(b1-4)GlcNAc(b1-4)[Fuc(a1-6)]GlcNAc
# How it was run: as §1
# [31] = molecular target: GlcNAc(b1-3)Gal(b1-4)GlcNAc(b1-3)Gal(b1-4)GlcNAc(b1-3)GalNAc
# How it was run: as §1
# [32] = molecular target: GlcNAc(b1-3)Gal(b1-4)GlcNAc(b1-3)GalNAc
# How it was run: as §1
# [33] = molecular target: GlcNAc(b1-3)Gal(b1-4)GlcNAc(b1-3)[GlcNAc(b1-3)Gal(b1-4)GlcNAc(b1-3)]GalNAc
# How it was run: as §1
# [34] = molecular target: GlcNAc(b1-3)Gal(b1-4)GlcNAc(b1-6)[Gal(b1-3)]GalNAc
# How it was run: as §1
# [35] = molecular target: GlcNAc(b1-3)Gal(b1-4)GlcNAc(b1-6)[GlcNAc(b1-3)Gal(b1-3)]GalNAc
# How it was run: as §1
# [36] = molecular target: GlcNAc(b1-3)Gal(b1-4)GlcNAc(b1-6)[GlcNAc(b1-3)]Gal(b1-4)GlcNAc
# How it was run: as §1
# [37] = molecular target: GlcNAc(b1-3)GalNAc
# How it was run: as §1
binder,measurement,setting,value
GS7807P-bth-537-23-537 (Bacteroides thetaiotaomicron) (protein) NYENINSNPYEAPDLSADGYALGSAMNNLAGCVVSPDVNTAQFTDCLLGGPLGGYFADSNAGFTETISNFNPKDDWSRVFLKSDKIIPTLYSNLTQVKLVSQNTNDPVPYAIAQVIKVAAMHRVTDAFGPIPYSQIGANGEIATPYDSQEVTYNTFFDELNAAIATLNENSNEQLVPTADYIYKGDVKKWIRFANSLKLRLAIRIAYANPVKAQQMAEEAVNPANGGVIESNADNATWNYFETSQNPIYVATRYNQVQTSDHGGVPCLTGGDTHAAADIICYMNGYKDNRREKFFTKSEWAGQDYVGMRRGIVIPELKTTGHKYSGVNIAPTSPLYWMNAAEVAFLRAEGQAVFNFSMGGTAESFYNQGIRLSFEQWGADGVEDYLKDDVNKPTAYTDPAGTNTYQNALSNITIKWNDSADKEEKQERIIVQKWIANWQLGNEAWADFRRTGYPKLIPVKENKSGGVVDSEKGARRMPYPLDEFVSNKANVEYAIANYLHGADNMATDVWWASKK,glycan array binding signal (z-score),[1],-0.394
same,glycan array binding signal (z-score),[2],-0.374
same,glycan array binding signal (z-score),[3],0.053
same,glycan array binding signal (z-score),[4],-0.338
same,glycan array binding signal (z-score),[5],-0.383
same,glycan array binding signal (z-score),[6],-0.293
same,glycan array binding signal (z-score),[7],-0.39
same,glycan array binding signal (z-score),[8],-0.37
same,glycan array binding signal (z-score),[9],-0.348
same,glycan array binding signal (z-score),[10],-0.243
same,glycan array binding signal (z-score),[11],-0.312
same,glycan array binding signal (z-score),[12],-0.36
same,glycan array binding signal (z-score),[13],-0.366
same,glycan array binding signal (z-score),[14],-0.377
same,glycan array binding signal (z-score),[15],-0.351
same,glycan array binding signal (z-score),[16],-0.364
same,glycan array binding signal (z-score),[17],-0.368
same,glycan array binding signal (z-score),[18],-0.376
same,glycan array binding signal (z-score),[19],-0.053
same,glycan array binding signal (z-score),[20],-0.129
same,glycan array binding signal (z-score),[21],-0.286
same,glycan array binding signal (z-score),[22],-0.085
same,glycan array binding signal (z-score),[23],-0.308
same,glycan array binding signal (z-score),[24],19.1
same,glycan array binding signal (z-score),[25],-0.354
same,glycan array binding signal (z-score),[26],0.119
same,glycan array binding signal (z-score),[27],-0.226
same,glycan array binding signal (z-score),[28],0.265
same,glycan array binding signal (z-score),[29],-0.32
same,glycan array binding signal (z-score),[30],0.291
same,glycan array binding signal (z-score),[31],-0.35
same,glycan array binding signal (z-score),[32],-0.088
same,glycan array binding signal (z-score),[33],-0.331
same,glycan array binding signal (z-score),[34],-0.249
same,glycan array binding signal (z-score),[35],-0.316
same,glycan array binding signal (z-score),[36],-0.326
same,glycan array binding signal (z-score),[37],-0.323

# — the supplement of paper PMC8728848
